# Experimental data: PubChem BioAssay AID588501 (NMMLSC, 2011)
# Values joined by “and” are separate entries in the source; they are usually repeats but may differ in a detail not shown here. Equal entries are not always repeated. Screen size: about 360,000 compounds; about 420 (0.12%) were called active. This list was built around the results that the source calls inconclusive (neither active nor inactive); the mix of calls is not that of the screen. Cut-off read from the data, not from the text of the source: active = inhibition above about 30%; inconclusive = no clear call, values can overlap the other calls; inactive = below that.
# Molecular target: Lethal factor (Bacillus anthracis) (UniProt P15917)
# Assay: anthrax lethal factor cleavage blockers – biochemical, multiplex microsphere, MLPCN library, primary screen (AID 588501); note: plate controls were buffer without enzyme for full effect and enzyme alone for no effect
# Conditions: multiplex microsphere protease cleavage assay, LF; at 10 µM; active compounds read high
# Chain of UniProt P15917 (P15917 whole entry, looked up): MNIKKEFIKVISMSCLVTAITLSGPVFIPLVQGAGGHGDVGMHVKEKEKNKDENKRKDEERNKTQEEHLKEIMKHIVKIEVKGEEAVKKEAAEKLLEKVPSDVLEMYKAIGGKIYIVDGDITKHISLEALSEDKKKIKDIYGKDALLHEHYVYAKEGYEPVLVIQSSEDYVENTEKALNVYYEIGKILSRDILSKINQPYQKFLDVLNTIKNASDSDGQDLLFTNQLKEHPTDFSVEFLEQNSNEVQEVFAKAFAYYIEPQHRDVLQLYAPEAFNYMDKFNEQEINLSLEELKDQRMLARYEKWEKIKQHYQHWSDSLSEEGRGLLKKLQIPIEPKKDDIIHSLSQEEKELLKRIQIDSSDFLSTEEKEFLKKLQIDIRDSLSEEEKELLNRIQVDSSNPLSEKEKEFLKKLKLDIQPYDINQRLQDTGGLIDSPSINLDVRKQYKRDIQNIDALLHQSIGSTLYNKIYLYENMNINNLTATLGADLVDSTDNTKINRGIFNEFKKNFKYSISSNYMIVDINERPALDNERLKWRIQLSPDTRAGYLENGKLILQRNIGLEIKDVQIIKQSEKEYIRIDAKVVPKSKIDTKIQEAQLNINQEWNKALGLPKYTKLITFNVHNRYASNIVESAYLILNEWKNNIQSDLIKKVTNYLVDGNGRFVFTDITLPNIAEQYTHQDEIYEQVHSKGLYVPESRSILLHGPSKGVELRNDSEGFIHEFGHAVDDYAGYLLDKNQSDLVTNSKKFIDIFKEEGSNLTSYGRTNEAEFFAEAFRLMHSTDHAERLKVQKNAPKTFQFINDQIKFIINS
row,Structure (SMILES),inhibition
1,O=C(Nc1ccccc1)OC1CCCCc2cccnc21 (stereo unspecified),active: 30.1%
2,CCN1CCN(S(=O)(=O)c2ccc(Cl)c(C(=O)NCCc3ccccc3)c2)CC1,inconclusive: 2.2%
3,CC1=[N+](C)c2c(ccc3cccnc23)C1(C)C,inconclusive: -15.4%
4,CC(=O)CSc1nnc(-c2ccc(S(=O)(=O)N3CCCC3)cc2)n1C,active: 31%
5,O=C1CCCC2=C1C1(CCCCC1)N=C(Nc1nc3ccccc3s1)N2,inactive: -2.4%
6,O=c1oc2c3c4c(cc2c2c1CCC2)OCCN4CCC3,inconclusive: -4.5%
7,COc1ccc(OC)c(NC(=O)c2cc(S(=O)(=O)N3CCCC3)cn2C)c1,inactive: 0.8%
8,Cc1ccccc1NC(=O)COc1nsnc1N1CCOCC1,inactive: -3.5%
9,O=C(CCn1c(SCC(=O)c2ccccc2)nc2ccccc2c1=O)NCc1ccc(F)cc1,inconclusive: -3.5%
10,COCc1cc(C)nc(Nc2ccccc2OC)c1C#N,active: 31.6%
11,CN(CC(=O)Nc1ccccc1Cl)C(=O)CSc1nnc(N)s1,inactive: -3.5%
12,COc1ccc(S(=O)(=O)N2CCCCC2)cc1NC(=O)Cc1cccc(C(F)(F)F)c1,inconclusive: -1.2%
13,CCCCCc1nnc(NC(=O)c2ccc(N3CCCC3=O)cc2)s1,inconclusive: 20.2%
14,CC1CCN(C(=O)CSC2=NS(=O)(=O)c3cc(F)ccc3N2)CC1,inactive: -2%
15,C=CCc1cccc2cc(C(=O)O)c(=O)oc12,inconclusive: 31.5%
16,CCOC(=O)c1cc2c(=O)n3ccccc3nc2n(C(C)C)c1=NC(=O)c1c(-c2c(F)cccc2Cl)noc1C,active: 34.5%
17,COc1ccc(/C=N/Nc2nc(-c3ccc(C)cc3)c(NC(C)=O)s2)cc1OC,active: 36.5%
18,O=C(O)c1ccccc1-c1c2cc(I)c(=O)c(I)c-2oc2c(I)c(O)c(I)cc12,active: 32.7% and active: 32.9%
19,Oc1ccc(/C=N/N=C/c2ccc(O)cc2)cc1,inactive: -3.6%

row,Structure (SMILES),inhibition
1,CN1C=CC2=C(C#N)C(N)C(C#N)(C#N)[C@H](c3ccccc3)[C@H]2C1 (stereo partly specified),inactive: -0.2%
2,COc1ccc(O)c(-c2cc(-c3ccccc3Cl)[nH]n2)c1,inactive: 6.4%
3,CC(=NNC(=S)N1CC2CCC(CC2)C1)c1cnccn1,active: 54.3%
4,COc1ccc(OC)c(Nc2ncnc3sccc23)c1,inconclusive: -11.1%
5,CCOC(=O)C1CCN(C(=O)c2cc(S(=O)(=O)N3CCCCCC3)ccc2OC)CC1,inconclusive: -0.5%
6,CCCNC(=O)C1(C)CCCN(C(=O)c2ccccc2F)C1 (stereo unspecified),inactive: -6.2%
7,COc1cc2[nH]c(=O)n(CCCCCC(=O)N3CCN(c4ccccn4)CC3)c(=O)c2cc1OC,inconclusive: 14.1%
8,O=C(Nc1cc(S(=O)(=O)N2CCOCC2)ccc1O)c1ccc(S(=O)(=O)N2CCCCC2)cc1,inconclusive: -0.3%
9,C=CCn1c(=S)sc2c(=O)[nH]cnc21,active: 53%
10,O=C(NCCc1ccco1)C(=O)NCC1CCCN1S(=O)(=O)c1ccccc1 (stereo unspecified),inconclusive: 4.2%
11,CC(C)n1ncc2c(C(=O)NCc3cccnc3)cc(C3CC3)nc21,inconclusive: 3.4%
12,Cc1cc(Cl)ccc1OCC(=O)OCC(=O)N(CC(C)C)c1c(N)n(Cc2ccccc2)c(=O)[nH]c1=O,inconclusive: 59.8%
13,Cc1nc(COc2ccc(C(=O)NCc3ccccc3CN3CCCCC3)cc2)cs1,inconclusive: -6.4%
14,CC(Sc1nccn1C)C(=O)c1c(N)n(C)c(=O)n(C)c1=O (stereo unspecified),inconclusive: -4.1%
15,Cc1cc(C(=O)CN2C(=O)NC(CCS(C)(=O)=O)C2=O)c(C)n1C1CC1 (stereo unspecified),inconclusive: -85.7%
16,Cc1ccc(C)c(N(CC(=O)N/N=C/c2ccc(-c3ccc([N+](=O)[O-])cc3)o2)S(=O)(=O)c2ccccc2)c1,active: 42.2%
17,CCN(CCCNC(=O)CCn1c(=S)[nH]c2cc3c(cc2c1=O)OCO3)c1cccc(C)c1,inactive: -0.9%
18,COc1cccc(C(=O)N2CCN(c3ccc(N4CCOCC4)nn3)CC2)c1,inconclusive: -8.3%
19,COc1ccc(S(=O)(=O)N2CCC3(CC2)CC(=O)c2ccccc2O3)cc1OC,inconclusive: -6.9%

row,Structure (SMILES),inhibition
1,CCN1CCc2nc(NC(=O)Cc3ccc4c(c3)OCCO4)sc2C1,inconclusive: -151%
2,Cc1cc(O)c(-c2cc(C(=O)Nc3ccc(S(=O)(=O)N4CCOCC4)cc3)[nH]n2)cc1C,inconclusive: -23.8%
3,CCn1c(=NC(=O)CS(=O)(=O)c2ccccc2)sc2cccc(OC)c21,inconclusive: 0%
4,Cc1cc(-c2nsc(=O)o2)c(S(C)(=O)=O)s1,inconclusive: -14.1%
5,CCn1c(=O)c(=O)[nH]c2cc(C(=O)NC3CCCc4ccccc43)ccc21 (stereo unspecified),inconclusive: -7.1%
6,O=C(O)c1ccc(NS(=O)(=O)/C=C/c2ccccc2)cc1O,inactive: 0.8%
7,CC12CN3CC(C)(CN(C1)C3c1ccc(Br)cc1)C2 (stereo unspecified),inactive: 0.1%
8,CC(CCc1ccccc1)NC(=O)CCNS(=O)(=O)c1ccccc1C(F)(F)F (stereo unspecified),inactive: 1.7%
9,Cc1ccc(S(=O)(=O)N(C)C)cc1NC(=O)COc1ccccc1C(=O)Nc1ccccc1,inconclusive: -4.7%
10,CCOc1ccc(S(=O)(=O)NCCC(=O)NCCCSc2ccccc2)cc1,inconclusive: -8%
11,CCOC(=O)CSc1nc(-c2ccccc2)nc2ccc(F)cc12,inconclusive: -10.7%
12,CCCC1=C(C(=O)OCC)C(c2cccs2)C(C#N)=C(N)O1 (stereo unspecified),inactive: -0.4%
13,CSc1nc2ncnc(N)c2[nH]1,inconclusive: -7.7%
14,CC(=O)Nc1ccc(S(=O)(=O)N2c3ccccc3NC(=O)CC2C)c(Cl)c1 (stereo unspecified),inconclusive: 4.9%
15,CCN(CC)CCOC(=O)C(Cc1ccco1)Cc1cccc2ccccc12 (stereo unspecified),inconclusive: 11.8%
16,O=C(O)c1cccc2c1NC(C(=O)O)C1CC(Sc3ccccc3[N+](=O)[O-])C(Cl)C21 (stereo unspecified),inconclusive: -12.2%
17,Cc1cc2ncn(S(=O)(=O)c3ccc(S(=O)(=O)N4CCOCC4)cc3)c2cc1C,inconclusive: -18.2%
18,O=C(Nc1cccc(Cl)c1)Nc1nnc(CSCCOc2ccc(Cl)cc2)s1,inactive: 0.7%
